Measured values as given in publication PMC9911399, “Two distinct binding modes provide the RNA-binding protein RbFox with extraordinary sequence specificity”.
Positions count from the first letter of the chain named. Some of the results follow.

T1: RBFOX1 RRM RbFoxmut (Fox-RRM*) (Homo sapiens, UniProt Q9NWB1 109-208, R118D;E147R;N151S;E152T)
T1 sequence: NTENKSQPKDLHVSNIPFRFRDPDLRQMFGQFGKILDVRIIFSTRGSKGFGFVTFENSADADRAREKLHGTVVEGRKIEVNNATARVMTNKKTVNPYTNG

B1: GAACACC (DNA:RNA)
RNA: GGGAGACCGGAAUUCAGAUUGUCCGAACACCUUAAAUCCCGUCGUAGCCACCA
DNA 1: CAATCTGAATTCCGGTCTCCC
DNA 2: TGGTGGCTACGACGGGATT
B2: GGAUCCC (DNA:RNA)
RNA: B1 RNA with A26G, C28U, A29C
DNA 1: CAATCTGAATTCCGGTCTCCC
DNA 2: TGGTGGCTACGACGGGATT
B3: GACUCGG (DNA:RNA)
RNA: B1 RNA with A27C, C28U, A29C, C30G, C31G
DNA 1: CAATCTGAATTCCGGTCTCCC
DNA 2: TGGTGGCTACGACGGGATT
B4: AGCGGCC (DNA:RNA)
RNA: B1 RNA with G25A, A26G, A27C, C28G, A29G
DNA 1: CAATCTGAATTCCGGTCTCCC
DNA 2: TGGTGGCTACGACGGGATT
B5: CCCGCGC (DNA:RNA)
RNA: B1 RNA with G25C, A26C, A27C, C28G, A29C, C30G
DNA 1: CAATCTGAATTCCGGTCTCCC
DNA 2: TGGTGGCTACGACGGGATT
B6: UGGUGAA (DNA:RNA)
RNA: GGGAGACCGGAAUUCAGAUUGUCCUGGUGAAUUAAAUCCCGUCGUAGCCACCA
DNA 1: CAATCTGAATTCCGGTCTCCC
DNA 2: TGGTGGCTACGACGGGATT
B7: CUGGUGC (DNA:RNA)
RNA: B1 RNA with G25C, A26U, A27G, C28G, A29U, C30G
DNA 1: CAATCTGAATTCCGGTCTCCC
DNA 2: TGGTGGCTACGACGGGATT
B8: GAUUUCC (DNA:RNA)
RNA: B1 RNA with A27U, C28U, A29U
DNA 1: CAATCTGAATTCCGGTCTCCC
DNA 2: TGGTGGCTACGACGGGATT
B9: GGGGAGU (DNA:RNA)
RNA: B1 RNA with A26G, A27G, C28G, C30G, C31U
DNA 1: CAATCTGAATTCCGGTCTCCC
DNA 2: TGGTGGCTACGACGGGATT
B10: GGGCGCU (DNA:RNA)
RNA: B1 RNA with A26G, A27G, A29G, C31U
DNA 1: CAATCTGAATTCCGGTCTCCC
DNA 2: TGGTGGCTACGACGGGATT
B11: CCACCCA (DNA:RNA)
RNA: B1 RNA with G25C, A26C, A29C, C31A
DNA 1: CAATCTGAATTCCGGTCTCCC
DNA 2: TGGTGGCTACGACGGGATT
B12: CCUCGAG (DNA:RNA)
RNA: B6 RNA with U25C, G26C, G27U, U28C, A31G
DNA 1: CAATCTGAATTCCGGTCTCCC
DNA 2: TGGTGGCTACGACGGGATT
B13: CUCAGUC (DNA:RNA)
RNA: B1 RNA with G25C, A26U, A27C, C28A, A29G, C30U
DNA 1: CAATCTGAATTCCGGTCTCCC
DNA 2: TGGTGGCTACGACGGGATT
B14: UGGCAGA (DNA:RNA)
RNA: B6 RNA with U28C, G29A, A30G
DNA 1: CAATCTGAATTCCGGTCTCCC
DNA 2: TGGTGGCTACGACGGGATT
B15: CUGUAGA (DNA:RNA)
RNA: B6 RNA with U25C, G26U, G29A, A30G
DNA 1: CAATCTGAATTCCGGTCTCCC
DNA 2: TGGTGGCTACGACGGGATT
B16: GGCCCAC (DNA:RNA)
RNA: B1 RNA with A26G, A27C, A29C, C30A
DNA 1: CAATCTGAATTCCGGTCTCCC
DNA 2: TGGTGGCTACGACGGGATT
B17: UGUGAGU (DNA:RNA)
RNA: B6 RNA with G27U, U28G, G29A, A30G, A31U
DNA 1: CAATCTGAATTCCGGTCTCCC
DNA 2: TGGTGGCTACGACGGGATT
B18: CUGUGAU (DNA:RNA)
RNA: B6 RNA with U25C, G26U, A31U
DNA 1: CAATCTGAATTCCGGTCTCCC
DNA 2: TGGTGGCTACGACGGGATT
B19: UACGAUA (DNA:RNA)
RNA: B1 RNA with G25U, A27C, C28G, C30U, C31A
DNA 1: CAATCTGAATTCCGGTCTCCC
DNA 2: TGGTGGCTACGACGGGATT
B20: ACAAAGC (DNA:RNA)
RNA: B1 RNA with G25A, A26C, C28A, C30G
DNA 1: CAATCTGAATTCCGGTCTCCC
DNA 2: TGGTGGCTACGACGGGATT
B21: UUGCUCG (DNA:RNA)
RNA: B1 RNA with G25U, A26U, A27G, A29U, C31G
DNA 1: CAATCTGAATTCCGGTCTCCC
DNA 2: TGGTGGCTACGACGGGATT
B22: AAUGUCG (DNA:RNA)
RNA: B1 RNA with G25A, A27U, C28G, A29U, C31G
DNA 1: CAATCTGAATTCCGGTCTCCC
DNA 2: TGGTGGCTACGACGGGATT
B23: UCUCGUC (DNA:RNA)
RNA: B1 RNA with G25U, A26C, A27U, A29G, C30U
DNA 1: CAATCTGAATTCCGGTCTCCC
DNA 2: TGGTGGCTACGACGGGATT
B24: CAGUGGC (DNA:RNA)
RNA: B6 RNA with U25C, G26A, A30G, A31C
DNA 1: CAATCTGAATTCCGGTCTCCC
DNA 2: TGGTGGCTACGACGGGATT
B25: AAUCGUU (DNA:RNA)
RNA: B1 RNA with G25A, A27U, A29G, C30U, C31U
DNA 1: CAATCTGAATTCCGGTCTCCC
DNA 2: TGGTGGCTACGACGGGATT
B26: ACGAGGA (DNA:RNA)
RNA: B6 RNA with U25A, G26C, U28A, A30G
DNA 1: CAATCTGAATTCCGGTCTCCC
DNA 2: TGGTGGCTACGACGGGATT
B27: CGAAUAC (DNA:RNA)
RNA: B1 RNA with G25C, A26G, C28A, A29U, C30A
DNA 1: CAATCTGAATTCCGGTCTCCC
DNA 2: TGGTGGCTACGACGGGATT
B28: GCUAGAA (DNA:RNA)
RNA: B6 RNA with U25G, G26C, G27U, U28A
DNA 1: CAATCTGAATTCCGGTCTCCC
DNA 2: TGGTGGCTACGACGGGATT
B29: UUUGUGU (DNA:RNA)
RNA: B6 RNA with G26U, G27U, U28G, G29U, A30G, A31U
DNA 1: CAATCTGAATTCCGGTCTCCC
DNA 2: TGGTGGCTACGACGGGATT
B30: GGGACUA (DNA:RNA)
RNA: B6 RNA with U25G, U28A, G29C, A30U
DNA 1: CAATCTGAATTCCGGTCTCCC
DNA 2: TGGTGGCTACGACGGGATT
B31: GCCUGAC (DNA:RNA)
RNA: B6 RNA with U25G, G26C, G27C, A31C
DNA 1: CAATCTGAATTCCGGTCTCCC
DNA 2: TGGTGGCTACGACGGGATT

What follows are binders tested against T1, RBFOX1 RRM RbFoxmut (Fox-RRM*) (assay: EMSA; HiTS-Eq, 1 nM pool, 10 min; buffer printed only for the single-RNA assays: 10 mM Tris pH 7.5, 150 mM NaCl, 3.4 mM EDTA, 0.001% NP-40, 30 C). Settings: tags: His6 N-terminal (pET28a); label: 5' 32P.
How it was run: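 Purified RbFox RRM (wild type or mutant) was equilibrated for 10 min in 50 µL with 1 nM of a 5′-radiolabelled pool of RNA with 7 randomized nucleotides, its flanks annealed to DNA oligonucleotides, across increasing protein concentrations. Free RNA was separated by 8% native PAGE, excised, reverse-transcribed, PCR-barcoded and sequenced on an Illumina HiSeq 2500. Relative association constants came from read-count changes of each variant against the control reaction, normalised to the cognate motif.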

Binder	binding signal
B1	0.0368 KA relative to UGCAUGU
B2	0.134 KA relative to UGCAUGU
B3	0.082 KA relative to UGCAUGU
B4	0.224 KA relative to UGCAUGU
B5	0.0883 KA relative to UGCAUGU
B6	0.117 KA relative to UGCAUGU
B7	0.0874 KA relative to UGCAUGU
B8	0.0366 KA relative to UGCAUGU
B9	0.12 KA relative to UGCAUGU
B10	0.0836 KA relative to UGCAUGU
B11	0.0929 KA relative to UGCAUGU
B12	0.108 KA relative to UGCAUGU
B13	0.0711 KA relative to UGCAUGU
B14	0.0918 KA relative to UGCAUGU
B15	0.148 KA relative to UGCAUGU
B16	0.0736 KA relative to UGCAUGU

Binder	binding signal
B17	0.17 KA relative to UGCAUGU
B18	0.0941 KA relative to UGCAUGU
B19	0.123 KA relative to UGCAUGU
B20	0.1 KA relative to UGCAUGU
B21	0.275 KA relative to UGCAUGU
B22	0.0939 KA relative to UGCAUGU
B23	0.131 KA relative to UGCAUGU
B24	0.0904 KA relative to UGCAUGU
B25	0.0641 KA relative to UGCAUGU
B26	0.0677 KA relative to UGCAUGU
B27	0.133 KA relative to UGCAUGU
B28	0.117 KA relative to UGCAUGU
B29	0.182 KA relative to UGCAUGU
B30	0.0812 KA relative to UGCAUGU
B31	0.0912 KA relative to UGCAUGU
